# In the BET-seq Pho4 binding data (Le et al. 2018):
# Some of the results follow. Values were computed here from the reads of four pooled replicates and scatter widely.
# Target: T1, Pho4 (S. cerevisiae) (UniProt P07270)
# T1 sequence: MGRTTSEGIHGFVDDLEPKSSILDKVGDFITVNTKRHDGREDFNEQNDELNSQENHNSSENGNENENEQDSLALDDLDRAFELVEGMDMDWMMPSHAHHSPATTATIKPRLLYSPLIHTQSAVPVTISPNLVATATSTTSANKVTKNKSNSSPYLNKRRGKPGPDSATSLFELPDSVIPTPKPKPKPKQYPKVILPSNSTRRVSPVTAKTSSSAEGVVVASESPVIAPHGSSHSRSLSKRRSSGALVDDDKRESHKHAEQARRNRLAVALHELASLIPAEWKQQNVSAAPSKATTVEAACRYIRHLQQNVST
# Test: relative binding free energy (BET-seq); higher = weaker binding
# Conditions: reference: library average
row,Sequence,relative binding free energy [kcal/mol]
1,TGGGTCACGTGTGCGC,0
2,AGAGTCACGTGTGGAG,0.18
3,CAAGACACGTGGTTGT,-0.03
4,GGTGGCACGTGCAGCG,-0.05
5,GGAGTCACGTGGATGC,0.19
6,TATCGCACGTGTGTAG,-0.05
7,CAAGGCACGTGGGGCG,-0.34
8,GCTTTCACGTGTTGTG,0.27
9,CAATTCACGTGGAGGG,0.22
10,GGCTACACGTGTGATG,0.36
11,AGTTTCACGTGGTTCA,0.3
12,GTTTTCACGTGGGTAG,0.3
13,TTGGTCACGTGTTGTC,0.15
14,GGAAACACGTGTGTGG,0.05
15,ATGGTCACGTGCGGCT,0.02
16,CGTTACACGTGTAGGA,0.18
17,TAATACACGTGGTGCT,-0.06
18,GTCTGCACGTGGTAAG,0.03
19,TCTGGCACGTGGGTCT,-0.18
20,TGGTTCACGTGAGACT,0.37
21,TCGGTCACGTGTGGGC,0.23

row,Sequence,relative binding free energy [kcal/mol]
1,GTGTTCACGTGAATAT,0.32
2,TTAGGCACGTGAGCTG,0.1
3,GTGTACACGTGCTTAG,-0.02
4,ATTGCCACGTGGGGCA,-0.17
5,TGATTCACGTGATCGT,0.28
6,TATGGCACGTGGTAGA,-0.11
7,TGTGGCACGTGCACAG,-0.04
8,GTGTTCACGTGTCTAT,0.29
9,TGGAACACGTGACGTT,0.14
10,AGCGTCACGTGGAGGC,0.02
11,TAGAACACGTGGGGCG,-0.15
12,TGTAGCACGTGAGTAA,0.03
13,GTGTGCACGTGGTCTG,-0.13
14,AGCAGCACGTGGTGTA,-0.18
15,TGAGTCACGTGAATGT,0.34
16,GTGGTCACGTGCAAGT,0.04
17,TGGGTCACGTGCGCTA,-0.01
18,GCGATCACGTGTGAGG,0.3
19,TGGTGCACGTGCCTGT,-0.23
20,AAATGCACGTGTGAGT,0.19
21,GGTGACACGTGGTGGT,0.03

row,Sequence,relative binding free energy [kcal/mol]
1,TAGTACACGTGTGTCG,0.11
2,GGTATCACGTGGTGTA,0.12
3,AATGTCACGTGTGTTT,0.13
4,AGAGGCACGTGGTGTT,-0.2
5,GGTGGCACGTGGCAGA,-0.09
6,GCTTGCACGTGGGGTG,-0.11
7,TGTTTCACGTGTGGTA,0.34
8,GACGTCACGTGCTGTG,0.14
9,TTAAGCACGTGGAGTT,0.02
10,TCTAGCACGTGGGTGC,-0.24
11,AGTGCCACGTGAGTAT,0.28
12,ACGTGCACGTGTGGGT,0.01
13,GTGGGCACGTGTGGAT,0.13
14,GGTGGCACGTGAGGGG,0.13
15,AAGGGCACGTGGGCTC,-0.2
16,GGAGGCACGTGGAAGG,-0.1
17,TCTTGCACGTGTTGTA,-0.14
18,CTTGGCACGTGGAGGA,-0.17
19,GTTCTCACGTGGTCTT,0.17
20,TTTCACACGTGTTGGT,0.18
21,TTCGTCACGTGTTCGG,0.17
